In the BET-seq Pho4 binding data (Le et al. 2018):
The list shows a part of the results. The energies were worked out here from pooled read counts, against the library average; single values are noisy.

What follows are sequences tested against T1, Pho4 (S. cerevisiae) (UniProt P07270) (assay: relative binding free energy (BET-seq); higher = weaker binding). Details: reference: library average.
T1 sequence: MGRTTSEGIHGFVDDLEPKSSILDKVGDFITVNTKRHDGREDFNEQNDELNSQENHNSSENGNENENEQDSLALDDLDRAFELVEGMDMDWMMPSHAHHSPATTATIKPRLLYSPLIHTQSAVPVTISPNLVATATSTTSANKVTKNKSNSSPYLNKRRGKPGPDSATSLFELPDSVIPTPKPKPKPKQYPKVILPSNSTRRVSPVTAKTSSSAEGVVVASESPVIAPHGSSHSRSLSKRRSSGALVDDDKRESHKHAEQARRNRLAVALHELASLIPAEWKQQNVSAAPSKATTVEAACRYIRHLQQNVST

Sequence | relative binding free energy
GGCTTCACGTGTATGG | 0.2 kcal/mol
GAATGCACGTGTATTG | -0.11 kcal/mol
GGAGGCACGTGTGTTT | 0.04 kcal/mol
CGGGACACGTGTGTTG | 0.05 kcal/mol
TAACTCACGTGGGGTG | 0 kcal/mol
GAGCGCACGTGGTGGA | -0.2 kcal/mol
ATATTCACGTGGGCTA | 0.02 kcal/mol
GTATGCACGTGGGCCT | -0.11 kcal/mol
GGCGACACGTGGAGGG | 0.1 kcal/mol
GTGTGCACGTGACGGA | 0.06 kcal/mol
CGGTGCACGTGGGGGT | -0.2 kcal/mol
TTCAACACGTGTCGGG | 0.28 kcal/mol
GCGTTCACGTGCAGGG | 0.19 kcal/mol
CTGGTCACGTGGCAGT | -0.08 kcal/mol
CCGTACACGTGTGGGA | 0.17 kcal/mol
GGTATCACGTGTTACG | 0.07 kcal/mol
CGGATCACGTGAGTTT | 0.32 kcal/mol
TTAGACACGTGCGGGT | 0.01 kcal/mol
GTTACCACGTGGCGGG | -0.1 kcal/mol
TGCTACACGTGGGTTA | -0.05 kcal/mol
ATTGGCACGTGTAAAT | 0.16 kcal/mol
GGTGCCACGTGCTGGT | -0.14 kcal/mol
GCTGTCACGTGGTGGT | 0.13 kcal/mol
GTGGTCACGTGAAGAT | 0.32 kcal/mol
GGATTCACGTGAGTGA | 0.24 kcal/mol
GTGTTCACGTGTCATG | 0.34 kcal/mol

Sequence | relative binding free energy
GTCCACACGTGTGGGG | 0.16 kcal/mol
TTGAACACGTGAGGGA | 0.27 kcal/mol
ATTGGCACGTGAAGAG | 0.02 kcal/mol
TTTGTCACGTGGCTGA | 0.19 kcal/mol
TGTGGCACGTGGGGGC | -0.17 kcal/mol
TGGTACACGTGGACTT | 0.1 kcal/mol
TGGCGCACGTGGTGAG | -0.16 kcal/mol
TGGGGCACGTGGCAGA | -0.2 kcal/mol
GGGTGCACGTGTGTGT | -0.01 kcal/mol
TTAGGCACGTGGACTA | -0.08 kcal/mol
TCGGTCACGTGTTTAT | 0.19 kcal/mol
AGGCGCACGTGCGTTG | 0.02 kcal/mol
ATTTACACGTGCTTAT | 0.01 kcal/mol
TGCGTCACGTGGCTGT | -0.07 kcal/mol
TCGTTCACGTGGGCGG | 0.1 kcal/mol
GCGTGCACGTGTATTT | 0.07 kcal/mol
GGTCGCACGTGGGCGT | -0.14 kcal/mol
TTAGACACGTGCGTAT | -0.01 kcal/mol
TGTTACACGTGCGTGA | 0.08 kcal/mol
ATTGGCACGTGGGGCT | -0.13 kcal/mol
CATTACACGTGGGTGT | -0.11 kcal/mol
CATGGCACGTGGGGGC | -0.25 kcal/mol
CAGGGCACGTGAGGTA | 0.04 kcal/mol
ACTGGCACGTGTATGT | -0.16 kcal/mol
ATTCTCACGTGGGTGA | 0.04 kcal/mol
TTTTGCACGTGAGTTG | 0.32 kcal/mol

Sequence | relative binding free energy
GTATGCACGTGGTTGC | -0.04 kcal/mol
GGTGGCACGTGGAGCT | -0.01 kcal/mol
TGATACACGTGTAGTG | -0.08 kcal/mol
TTATGCACGTGTGCAA | 0.12 kcal/mol
GTTCGCACGTGTAGAG | 0.2 kcal/mol
TTTGACACGTGGAGGT | 0.09 kcal/mol
GATATCACGTGGCTGT | 0.11 kcal/mol
GTATTCACGTGATGTC | 0.24 kcal/mol
ATAGGCACGTGGACTT | -0.04 kcal/mol
GGGAGCACGTGGTTCG | 0 kcal/mol
CGGATCACGTGAGGGT | 0.26 kcal/mol
TCTAGCACGTGGATGT | -0.01 kcal/mol
TTGGCCACGTGGGGAC | -0.19 kcal/mol
TGGGCCACGTGTTGGA | -0.08 kcal/mol
GTCGACACGTGGGTTG | -0.01 kcal/mol
GTTGACACGTGAAGTT | 0.16 kcal/mol
AGGCGCACGTGTGTTA | -0.22 kcal/mol
GTTCGCACGTGTGAAG | 0.06 kcal/mol
TTGGGCACGTGTGGAC | 0.02 kcal/mol
TCGGTCACGTGTTGGG | 0.05 kcal/mol
CGTGGCACGTGTTGCG | -0.09 kcal/mol
CATGGCACGTGGGTTG | -0.28 kcal/mol
TCAGTCACGTGTGTAT | 0.14 kcal/mol
CCTTTCACGTGTGGTT | 0.18 kcal/mol
AGGATCACGTGTTGCT | 0.15 kcal/mol
GGCGGCACGTGGCGTA | -0.16 kcal/mol

Sequence | relative binding free energy
TTCAGCACGTGGGAGT | -0.05 kcal/mol
TGGGACACGTGCGCAG | -0.03 kcal/mol
GTTGCCACGTGTTTAG | -0.01 kcal/mol
CATGTCACGTGGGGTT | -0.09 kcal/mol
ATCTGCACGTGATGAG | 0.18 kcal/mol
TCTGGCACGTGGCGAG | -0.09 kcal/mol
TTAAACACGTGGAAGG | 0.03 kcal/mol
TAATACACGTGTAAGG | 0.07 kcal/mol
GGGGACACGTGTTAAG | 0.23 kcal/mol
TGTGGCACGTGCTGTT | -0.21 kcal/mol
AGTCGCACGTGGTCGT | -0.04 kcal/mol
TGGGACACGTGCAATT | 0.19 kcal/mol
CAGAGCACGTGTGGCG | -0.03 kcal/mol
TAAGTCACGTGCTGAT | 0.13 kcal/mol
TTTTTCACGTGTGGCC | 0.41 kcal/mol
GTGGACACGTGAATTG | 0.31 kcal/mol
CTTATCACGTGGTAAT | 0.1 kcal/mol
ATGTGCACGTGTGTGT | 0.04 kcal/mol
GGAGGCACGTGGATGA | -0.03 kcal/mol
ATGAGCACGTGGGCAG | -0.26 kcal/mol
ATCTTCACGTGTGTGT | 0.16 kcal/mol
GAGTGCACGTGGTGGA | 0.03 kcal/mol
GGTGGCACGTGTTGAG | 0 kcal/mol
ATTGTCACGTGGTGTG | -0.05 kcal/mol
GAATTCACGTGATTTT | 0.46 kcal/mol
GGTGGCACGTGCGTTT | -0.02 kcal/mol

Sequence | relative binding free energy
ATTTTCACGTGGTTAT | 0.22 kcal/mol
TGCAGCACGTGGTGTA | -0.26 kcal/mol
GGGTACACGTGTCTGT | 0.19 kcal/mol
GCGTTCACGTGTTGGC | 0.37 kcal/mol
GGGTGCACGTGTATGC | -0.05 kcal/mol
AGGGACACGTGCTGTG | 0.02 kcal/mol
TTGGGCACGTGGCCTA | -0.17 kcal/mol
GGGGGCACGTGTATAT | -0.07 kcal/mol
GTTGGCACGTGCTTTC | 0.09 kcal/mol
ATCGGCACGTGTTTTT | 0.04 kcal/mol
ATTGGCACGTGGCGAG | -0.22 kcal/mol
CGATTCACGTGTGGAG | 0.25 kcal/mol
GTCGTCACGTGAGCTG | 0.26 kcal/mol
GTTTGCACGTGACAAG | 0.25 kcal/mol
AACGGCACGTGTATGT | -0.04 kcal/mol
GGCAGCACGTGGGTTG | -0.29 kcal/mol
TATTGCACGTGAATTT | 0.2 kcal/mol
GGTGTCACGTGTAATC | 0.31 kcal/mol
TCGTGCACGTGTTAGA | -0.1 kcal/mol
TAGGTCACGTGTCTAG | 0.17 kcal/mol
TGGGTCACGTGTACAA | 0.22 kcal/mol
TAGGACACGTGTTTTC | 0.1 kcal/mol
TTTAACACGTGGTATT | -0.02 kcal/mol
GTGAACACGTGTGGCT | 0.1 kcal/mol
AGATACACGTGGGCGG | -0.06 kcal/mol
GTTTGCACGTGGATCA | -0.02 kcal/mol

Sequence | relative binding free energy
AGGTCCACGTGGTTGT | 0.13 kcal/mol
GTGTCCACGTGAATTG | 0.29 kcal/mol
AAGGGCACGTGGCCGT | -0.24 kcal/mol
CAGATCACGTGTGGGT | 0.18 kcal/mol
ACTCGCACGTGTTGTG | -0.05 kcal/mol
GGGGCCACGTGGATCG | -0.03 kcal/mol
GGGCGCACGTGTCAGG | 0.05 kcal/mol
TGTATCACGTGGGGAT | 0.16 kcal/mol
TGCTTCACGTGGGGGC | 0.15 kcal/mol
TATAACACGTGGGTGG | -0.03 kcal/mol
TAGTTCACGTGAGGGC | 0.42 kcal/mol
GGCAGCACGTGGTGTG | 0 kcal/mol
ATAATCACGTGGTTAT | -0.11 kcal/mol
ACGTGCACGTGTATTG | -0.18 kcal/mol
TGTAGCACGTGATAGA | -0.08 kcal/mol
TTAGGCACGTGGATGC | -0.3 kcal/mol
GTTATCACGTGGCGGT | 0.11 kcal/mol
GTGTGCACGTGGTATG | -0.07 kcal/mol
ATCAGCACGTGTATTA | 0.02 kcal/mol
TGAGCCACGTGGGGGC | -0.23 kcal/mol
GGGTCCACGTGGGGTC | -0.07 kcal/mol
TGAAGCACGTGTAGTA | -0.04 kcal/mol
GTTCTCACGTGGCGTG | 0.15 kcal/mol
ATGGGCACGTGGTTAC | -0.14 kcal/mol
GGTAGCACGTGGGTTG | -0.13 kcal/mol
TAGTGCACGTGGTGGA | -0.02 kcal/mol

Sequence | relative binding free energy
GAGCTCACGTGAGGGG | 0.3 kcal/mol
TCTGTCACGTGTTGGG | 0.22 kcal/mol
TGGAGCACGTGAGGGC | 0.14 kcal/mol
GGTATCACGTGATGTC | 0.24 kcal/mol
AAGGGCACGTGTGAGT | -0.09 kcal/mol
TTTCTCACGTGGGTGG | 0.05 kcal/mol
GTATTCACGTGAAGGT | 0.41 kcal/mol
CATGTCACGTGCTTGG | 0.04 kcal/mol
AGGTTCACGTGGAGAA | 0.3 kcal/mol
ATTGGCACGTGAAGGT | 0.12 kcal/mol
GCTTGCACGTGCGGTG | 0.07 kcal/mol
TGGGGCACGTGTACGA | -0.07 kcal/mol
TAGTCCACGTGGGTAA | -0.03 kcal/mol
TTGGTCACGTGAGGCG | 0.23 kcal/mol
TTTCCCACGTGTGTTG | -0.11 kcal/mol
CTTTGCACGTGGTGAA | -0.1 kcal/mol
GGTATCACGTGTTGTA | 0.08 kcal/mol
TGAGACACGTGTTGCG | 0.11 kcal/mol
AGGGTCACGTGAAGTT | 0.22 kcal/mol
ATTCTCACGTGGGTCA | 0.2 kcal/mol
GTTAGCACGTGAGGAG | 0.23 kcal/mol
AAATGCACGTGGCGGA | -0.01 kcal/mol
CGTTGCACGTGGGCGG | -0.2 kcal/mol
CAGGGCACGTGAAGTT | 0.17 kcal/mol
GTGTTCACGTGGGATA | 0.25 kcal/mol
GTTTTCACGTGGTTAA | 0.31 kcal/mol

Sequence | relative binding free energy
CGTAGCACGTGTTGTA | -0.07 kcal/mol
AGTCGCACGTGTAAGT | 0.03 kcal/mol
GGCGTCACGTGAGTCG | 0.2 kcal/mol
AATAGCACGTGCAGTG | -0.09 kcal/mol
AGCGGCACGTGCGGAG | -0.15 kcal/mol
TTCAGCACGTGGTGTG | -0.17 kcal/mol
AGGGACACGTGAGCGT | 0.11 kcal/mol
CGTTGCACGTGTAAGA | 0.19 kcal/mol
GCTGTCACGTGATGGG | 0.26 kcal/mol
AGGGCCACGTGTGTTA | -0.06 kcal/mol
TTTGACACGTGGATAG | 0.07 kcal/mol
GGGATCACGTGTTACG | 0.2 kcal/mol
AGCTGCACGTGGTAAG | 0.05 kcal/mol
AAATTCACGTGGTTAG | 0.09 kcal/mol
TGATTCACGTGGAGCG | 0.45 kcal/mol
TTAAGCACGTGGTGTT | -0.13 kcal/mol
TGGAGCACGTGTAGCG | -0.15 kcal/mol
AATTTCACGTGTGCTT | 0.21 kcal/mol
AAATGCACGTGGGGCT | -0.13 kcal/mol
GGCGGCACGTGTTGGG | 0.01 kcal/mol
GGAGCCACGTGATGGG | 0.1 kcal/mol
ACTCGCACGTGTGTGG | -0.06 kcal/mol
ATTTGCACGTGGTTAT | -0.08 kcal/mol
GGTGCCACGTGGTGTT | -0.14 kcal/mol
TGTGGCACGTGGCCGT | -0.35 kcal/mol
GGTCGCACGTGATGAT | 0.11 kcal/mol

Sequence | relative binding free energy
TTGTGCACGTGGACTA | -0.07 kcal/mol
GCGTACACGTGGGTCT | -0.06 kcal/mol
TCTGTCACGTGCGGGT | 0.08 kcal/mol
AGTGCCACGTGCTTGG | -0.17 kcal/mol
CGGCTCACGTGAGTGT | 0.41 kcal/mol
TTTTGCACGTGAACTG | 0.2 kcal/mol
AGTCGCACGTGTGGGT | -0.01 kcal/mol
GTTGTCACGTGGCTGT | 0.06 kcal/mol
TAGGGCACGTGTGCGT | -0.01 kcal/mol
CGCTGCACGTGTGGTT | 0.03 kcal/mol
TTATTCACGTGGGAGG | 0.14 kcal/mol
GGTCTCACGTGTTGCT | 0.34 kcal/mol
ATAGTCACGTGTTCGG | 0.02 kcal/mol
GATATCACGTGTTGGG | 0.3 kcal/mol
AGTCACACGTGATGTG | 0.13 kcal/mol
CTTGTCACGTGTACTT | 0.2 kcal/mol
GGGTTCACGTGTCTGT | 0.35 kcal/mol
TTGGGCACGTGTAAGC | 0.03 kcal/mol
GGGGGCACGTGGCGAA | -0.21 kcal/mol
AGCGACACGTGGGGTA | -0.07 kcal/mol
AGATTCACGTGGGGTG | 0.19 kcal/mol
TTACGCACGTGTAATT | 0.12 kcal/mol
